This passage reports activation results from PubChem BioAssay AID1346428 (National Center for Advancing Translational Sciences (NCATS), 2018).

Values joined by “and” are separate entries in the source; they are usually repeats but may differ in a detail not shown here. Equal entries are not always repeated. Among all 48,000 compounds or so, about 1,200 (2.5%) were called active. About 2% were inconclusive and are not listed.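 Rule for the calls: active = activation of at least 60% and not above a set upper limit (about 1 call in 100 departs from these limits); inconclusive = activation of 40% to 60%, or above that upper limit; inactive = activation under 40%.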 The list shows a part of the results.

This assay has as its target Probable G-protein coupled receptor 32 (Homo sapiens) (UniProt O75388). The assay can be described thus: qHTS for Agonists of Human Resolvin D1 Receptor DRV1. Note: 0% is about no effect. The note with it: CHO-K1 GPR32 beta-arrestin PathHunter luminescence, 90 min; at 76.9 µM; active compounds read high; zero percent set by DMSO-only wells. In outline: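 Cells are plated overnight, treated with compounds in DMSO for 90 minutes at 37 °C, and developed with PathHunter detection reagent for 1 hour before luminescence is read; signal reflects beta-arrestin binding to GPR32 in engineered CHO-K1 cells.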
Chain of UniProt O75388 (O75388 whole entry, looked up): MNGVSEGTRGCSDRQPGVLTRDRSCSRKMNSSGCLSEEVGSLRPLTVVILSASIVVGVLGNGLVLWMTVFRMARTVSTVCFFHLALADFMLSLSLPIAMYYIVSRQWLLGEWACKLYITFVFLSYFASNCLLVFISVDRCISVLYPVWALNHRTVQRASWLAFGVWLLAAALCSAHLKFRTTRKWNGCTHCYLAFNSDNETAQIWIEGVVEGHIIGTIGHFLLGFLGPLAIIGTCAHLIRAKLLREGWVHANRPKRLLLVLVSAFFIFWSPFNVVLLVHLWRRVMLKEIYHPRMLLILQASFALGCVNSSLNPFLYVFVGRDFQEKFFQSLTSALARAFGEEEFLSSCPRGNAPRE
In the case of `Cc1cc(=O)[nH]c2nnc(SCC(=O)NC(C)(C)C)n12`, the activation is inactive: 3.9%.

Regarding `COc1cc2c(cc1OC)C(COc1ccccc1OC)N(C(=O)CC(C)C)CC2` (stereo unspecified), the activation is inactive: 11.1%.

`COc1ccc(Cl)cc1Nc1sc(C(=O)c2ccccc2)c(N)c1C(=O)Nc1ccccc1`: the activation is inactive: -97.1%.

For `CCc1ccc(-c2cn3c(n2)sc2cc(C(=O)NC4CCCCCC4)ccc23)cc1`, the activation was inactive: -9.54%.

Turning to `CCc1c(C)sc2c1CCN(Cc1cccc(F)c1)C2c1ccccc1` (stereo unspecified), the activation was inactive: 32.2%.

Regarding `CC(=O)N1CCc2cc(CNS(=O)(=O)c3ccc(F)cc3)ccc21`, the activation is inactive: -4.21%.

As for `COCCc1nn2c(=O)cc(COC(=O)c3ccc4c(c3)OCO4)nc2s1`, the activation was inactive: -18.9%.

Turning to `Cc1ccc(-c2cc(C(=O)NCc3cnn(C)c3C)c3cc(Br)ccc3n2)cc1`, the activation is inactive: -15.4%.

`Cc1ccc(S(=O)(=O)c2nc(-c3ccccc3F)oc2N2CCCCC2)cc1`: the activation is inactive: -20.3%.

In the case of `CC(=O)Nc1ccc(C(=O)CSc2nnc(-c3ccccc3)n2-c2ccccc2)cc1`, the activation is inactive: 24.1%.

Turning to `Cc1ccc(NC2=C(c3ccc(C(F)(F)F)cc3)C(=O)c3ccccc32)cc1C`, the activation was inactive: -31.7%.

Turning to `Cc1ccc(OCCn2c(-c3ccc(Cl)cc3)nc3ccccc3c2=O)c(C)c1`, the activation was inactive: -0.456%.

As for `CCCN(C(=O)c1cc2c(Cl)nc3ccccc3c2s1)c1cccc(C)c1`, the activation was inactive: 11.7%.

Regarding `COCCNC(=O)c1ccc(Cn2c(SCC(=O)NC(C)C)nc3ccccc3c2=O)cc1`, the activation was inactive: 7.97%.

For the molecule `CCCN(CCC)C(=O)Cn1c(=O)n(Cc2ccc(C(=O)NCCc3ccc(OC)c(OC)c3)cc2)c(=O)c2ccccc21`, the activation is inactive: 0.262%.

On to `CCOc1cc(CNc2ccc(O)cc2)cc(Br)c1OCc1ccccc1`, for which the activation is inactive: -25.7%.

As to `CCOc1ccccc1N(C)C(=O)c1nn(-c2ccc(C)cc2)c(=O)c2c1c1ccccc1n2C`, the activation was inactive: -1.01%.

In the case of `COc1cc(C=O)ccc1O`, the activation was inactive: 22.9%.

Take `COc1ccc(-c2cc3nc(C4CCN(C(=O)OC(C)(C)C)CC4)c(C(=O)Nc4cc(Cl)cc(Cl)c4)cn3n2)cc1`: the activation was inactive: -7.55%.

In the case of `COc1ccc(CNC(=O)c2ccc3c(c2)N(Cc2ccccc2)C(=O)c2ccccc2S3(=O)=O)cc1`, the activation is inactive: -30.3%.

`COc1ccc(-n2c(SCC(=O)N3CCC(C)CC3)nc3c([nH]c4ccccc43)c2=O)cc1`: the activation is inactive: -2.4%.

Consider `CC1=C(C(=O)Nc2ccc(C)cc2C)C(c2sccc2C)n2ncnc2N1` (stereo unspecified), for which the activation was inactive: -6.09%.

On to `COc1ccc(OC)c(NC(=O)c2csnn2)c1`, for which the activation is inactive: -8.99%.

As for `COCCCNC(=O)c1cc(-c2cccnc2)nc2ccccc12`, the activation was inactive: 5.24%.

Regarding `CCOc1ccccc1-c1nnc(SCc2ccc(Cl)cc2)o1`, the activation was inactive: -28.5%.

In the case of `CCOc1cccc(C2c3c(oc4ccccc4c3=O)C(=O)N2c2nc(C)c(C(=O)OC)s2)c1` (stereo unspecified), the activation is inactive: 1.39%.

Turning to `COc1ccc2cccc(CCNC(C)=O)c2c1`, the activation was inactive: 1.56%.

On to `O=C(Nc1nnc(S(=O)(=O)N2CCCc3ccccc32)s1)c1ccccc1Br`, for which the activation is inactive: 18.6%.

For the molecule `O=C(COc1ccccc1F)Nc1ccc(C(=O)OCc2cc(=O)n3nc(C4CC4)sc3n2)cc1`, the activation is inactive: -0.59%.

As to `CN(Cc1ccccc1)c1nc(-c2ccc(F)cc2)cc(C(F)(F)F)n1`, the activation was inactive: -18.8%.

In the case of `Cc1ccn2c(c1)nc(=O)c1cc(S(=O)(=O)N3CCC(C)CC3)c(Cl)cc12`, the activation was inactive: -21.1%.

Consider `CCCCN(C)CCNC(=O)c1cc(-c2cccnc2)nc2ccc(S(=O)(=O)N3CCC(C)CC3)cc12`, for which the activation is inactive: -12.3%.

For the molecule `O=C(Nc1ccc(Cl)cc1Cl)c1cc(S(=O)(=O)N2CCN(c3ccccc3F)CC2)ccc1F`, the activation is inactive: -10.5%.

Regarding `CCc1ccc(-n2c(C)nnc2SCc2nc(-c3ccc(OC)cc3)no2)cc1`, the activation is inactive: -2.74%.

For `Cc1ccc(-c2cc3ncc(C(=O)c4cc([N+](=O)[O-])ccc4O)cn3n2)cc1`, the activation was inactive: 18.2%.

As for `Cc1ccc(NC(=O)CCSCCc2ccccn2)cc1`, the activation was inactive: -15.8%.

With `CCC(C(=O)Nc1cccc(-c2cn3cccnc3n2)c1)c1ccccc1` (stereo unspecified), the activation is inactive: 29.4%.

Turning to `CC1=C(C)C(=O)C(CCCCC#CCCCC#CCO)=C(C)C1=O`, the activation was inactive: -2.17% and inactive: -0.657%.

`COc1ccc(Br)cc1CNC(=O)CCCn1c(=O)c2cccn2c2ccccc21`: the activation is inactive: -29.5%.

On to `CCC(Oc1ccccc1F)C(=O)Nc1c(C(=O)c2ccccc2)oc2ccccc12` (stereo unspecified), for which the activation is inactive: -28.2%.

Regarding `CC(C)(C)OC(=O)N1CCC(c2c(C(=O)NCc3ccc4c(c3)OCO4)cnn2-c2ccc(F)cc2F)CC1`, the activation is inactive: -10%.

With `O=C(Nc1ccc(Cl)cc1)C1CCN(c2nc3ccccc3n3cccc23)CC1`, the activation is inactive: -21.8%.

In the case of `CC(C)NCC(O)c1ccc(NS(C)(=O)=O)cc1` (stereo unspecified), the activation was inactive: 4.77%.

`CN(C)c1ccc(C(CNS(=O)(=O)c2ccc(Cl)cc2)N2CCCC2)cc1` (stereo unspecified): the activation is inactive: -14.6%.

Consider `COc1ccc(CCNC(=O)NCc2noc3ccccc23)c(OC)c1`, for which the activation was inactive: -4.07%.

With `CC1=C(C(=O)Nc2ccc(C)cc2C)C(c2ccccc2C)n2ncnc2N1` (stereo unspecified), the activation is inactive: -5.89%.

In the case of `COc1cccc(-c2nnc3n(Cc4ccc(F)cc4)c(=O)c4ccccc4n23)c1`, the activation is inactive: -5.99%.

On to `Cc1nn(-c2ccc3nncn3n2)c(C)c1CCC(=O)Nc1ccc(OC(F)(F)F)cc1`, for which the activation is inactive: -8.61%.

On to `Cc1ccc(-c2noc(CN(C3CCCCC3)S(=O)(=O)c3ccc(C)cc3)n2)cc1`, for which the activation was inactive: -19.2%.

With `COc1cc(NC(=O)c2noc3c2CCc2ccccc2-3)cc(OC)c1OC`, the activation is inactive: 19.9%.

As for `Cc1cccc(-c2nc3c(C#N)c[nH]n3c2NC2CCCCC2)c1`, the activation was inactive: -15.2%.

As for `COc1cc(C(=O)NCC(c2cccnc2)N2CCN(c3ccc(F)cc3)CC2)cc(OC)c1OC` (stereo unspecified), the activation is inactive: -4.65%.

Take `Cc1ccccc1CNC(=O)c1ccc(-n2c(C)cc3c2CCCC3)cc1`: the activation was inactive: 6.26%.

Regarding `COc1ccccc1CNC(=O)C1CCN(Cc2nc(-c3ccc(OC)c(OC)c3)oc2C)CC1`, the activation is inactive: -14.5%.

On to `CC(N)(Cc1ccc(O)cc1)C(=O)O` (stereo unspecified), for which the activation was inactive: -0.833%.

As to `Cc1ccc(Cl)cc1NC(=O)Cn1nc2c(cc1=O)CC(C)CC2` (stereo unspecified), the activation was inactive: 2.41%.

As for `CCOc1ccc(NC(=O)CN2C(=O)COc3ccc(S(=O)(=O)Nc4ccccc4)cc32)cc1`, the activation is inactive: -6.11%.

Consider `Cc1ccc(OCCSc2nc3ccccc3n2CC(=O)N2CCOCC2)c(C)c1`, for which the activation was inactive: 12%.

`COc1ccc(C(=O)Nc2ccc3nc4n(c(=O)c3c2)CCCCC4)cc1OC`: the activation is inactive: 11.1%.

Take `O=C(NNc1ncnc2c1cnn2-c1ccccc1)c1cccc(Cl)c1`: the activation was inactive: 24.9%.

Regarding `CCC(=O)N1CCc2cc(Br)cc(S(=O)(=O)N3CCC(C(=O)NC(C)(C)C)CC3)c21`, the activation is inactive: -7.37%.

For the molecule `COc1ccc(C(=O)NCc2nnnn2-c2ccc(C)c(C)c2)cc1`, the activation is inactive: -13.7%.

For `COc1ccc(Cl)c(Cn2c(NCCN)nc3c2c(=O)n(C)c(=O)n3C)c1`, the activation was inactive: -19.7%.

Regarding `CC(C)Cn1c(=O)c2ccccc2n2c(-c3cccc(Cl)c3)nnc12`, the activation is inactive: -0.202%.

`CCc1ccccc1NC(=O)CSc1nnc(-c2nonc2NC(C)=O)n1C`: the activation was inactive: -15%.

As to `CCOc1ccc(NC(=O)N2CCOc3ccccc32)cc1`, the activation was inactive: -22%.

Take `N#Cc1ccc(-c2cccs2)nc1SCc1ccc(Cl)cc1Cl`: the activation was inactive: 5.16%.

As for `Cc1ccc(Cl)cc1Nc1nc2ccccc2n2c(C)nnc12`, the activation is inactive: -4.31%.

`CCCOc1ccccc1Cn1c(=O)sc2ccccc21`: the activation was inactive: -21.7%.

Turning to `CCCCc1nn2c(=O)cc(COC(=O)c3ccccc3NC(=O)C(C)(C)C)nc2s1`, the activation is inactive: 2.13%.

Turning to `CN(CCOc1ccc(NS(C)(=O)=O)cc1)CCc1ccc(NS(C)(=O)=O)cc1`, the activation is inactive: -18.1%.

On to `CCOC(=O)c1ccc(NC(=O)CN2C(=O)c3cccnc3Oc3ccc(Cl)cc32)cc1`, for which the activation is inactive: -19.1%.

`Cc1ccc(N2CCn3c2nc2c3c(=O)n(CCc3ccccc3)c(=O)n2C)cc1C`: the activation was inactive: -6.18%.

Turning to `Cc1[nH]c(=O)[nH]c(=O)c1C1N2CC3(C(C)C)CN1CC(C(C)C)(C2)C3=O` (stereo unspecified), the activation is inactive: -3.2%.

In the case of `Cc1nc2sc(C(=O)NCc3ccc(Cl)cc3)c(NC(=O)c3ccccc3)c2c(C)c1C`, the activation is inactive: -1.18%.

For the molecule `Cc1ccc(CNC(=O)CCCCn2c(=O)c3ccccc3n(Cc3ccc(Cl)cc3)c2=O)cc1`, the activation was inactive: -5.88%.

On to `Cc1ccc(-n2ncc(C(=O)Nc3ccc(C)c(F)c3)c2C2CCN(C(=O)OC(C)(C)C)CC2)cc1C`, for which the activation is inactive: -7.27%.

Take `CCOc1cc(C2c3c(oc4ccccc4c3=O)C(=O)N2Cc2ccc3c(c2)OCO3)ccc1O` (stereo unspecified): the activation is inactive: 13.2%.

For `Cc1ccc(NC(=O)Cn2c(CCC(=O)O)ccc2-c2cccs2)cc1`, the activation is inactive: -22.7%.

For `COc1cccc(N2CCN(c3nc4ccc(C(=O)c5ccccc5)cc4n4c(C)nnc34)CC2)c1`, the activation is inactive: -11.5%.

`CCC(C(=O)OCc1cc(=O)n2nc(CCOC)sc2n1)c1ccccc1` (stereo unspecified): the activation is inactive: -13.3%.

Regarding `Cc1ccccc1NC(=O)c1nc(-c2ccncc2)no1`, the activation was inactive: 0.996%.

As to `COC(=O)C(C)Sc1nc2c([nH]c3ccccc32)c(=O)n1-c1ccc(OC)cc1` (stereo unspecified), the activation was inactive: 7.61%.

On to `Cc1cc(C)c2c(=O)cc(C(=O)Nc3ccc(S(=O)(=O)Nc4nc(C)cc(C)n4)cc3)oc2c1`, for which the activation was inactive: -6.81%.

In the case of `Cc1ccc(-c2cn3c(n2)sc2cc(C(=O)N4CCCCC4)ccc23)cc1`, the activation is inactive: 6.06%.

Regarding `Cc1ccc(NC(=O)NCc2cccn2Cc2ccccc2)cc1F`, the activation is inactive: -8.83%.
